Laboratory results published in PubChem BioAssay AID1347417 (National Center for Advancing Translational Sciences (NCATS), 2020).
Among all 120,000 compounds or so, about 5,300 (4.4%) were called active. This list was built around the results that the source calls inconclusive (neither active nor inactive); the mix of calls is not that of the screen. Calls follow the shape of the dose curve; as a rule, active = well fitted inhibition curve with a large enough effect; inconclusive = small, poorly fitted or top-dose-only effect; inactive = no such curve, though single readings can be large or run the other way. Potencies of inconclusive entries are doubtful fits and often do not repeat.
Potency is read from the fitted curve at half-maximal effect; tags tell the direction and shape of the fitted curve.

Assay: qHTS Primary assay for Inhibitors of Plasmodium falciparum Dd2 growth in vitro; also: nearly all actives have a fitted effect of over 65% in size;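 as to activity, negative = inhibition: plate controls were DMSO vehicle for no effect and reference drug for full effect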
Settings: P. falciparum Dd2 growth, SYBR Green, 72 h; activity, negative = inhibition: at 28.9 µM (top of the series) unless noted; series mostly up to 28.9 µM
In short: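 Readout: SYBR Green fluorescence, 485 nm excitation, 535 nm emission, after ~16 h lysis at 37C. Before that, Dd2-infected red cells (2.5% hematocrit) grew 72 h with compound, 29 uM top final concentration.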
With CCc1ccccc1CN1CCC2(Cc3ccccc3CNC2=O)C1 (stereo not drawn) the Potency was inconclusive: 14.1 µM [inhibitor, single point].
For Cc1ccn(CCC(=O)N2CC(=O)N(C3CCCCC3)CC(OCc3ccccc3)C2)n1 (stereo not drawn), the Potency was inconclusive: 3.16 µM [inhibitor, partial curve, poor fit].
In the case of O=C(c1ccccc1F)N1CCCC(c2noc(COc3ccccc3F)n2)C1 (stereo not drawn), the Potency was inconclusive: 10 µM [inhibitor, single point].
For Cc1ccc(Cl)cc1NC(=O)c1ccc2nc(CCc3ccccc3)oc2c1, the Potency was inconclusive: 17.8 µM [inhibitor, single point].
In the case of C[S+](=O)([O-])N1CCNc2cnc(Nc3cccc(C(F)(F)F)c3)nc2C1, the Potency was inconclusive: 31.6 µM [inhibitor, single point].
For CC(=O)Nc1ccc(CN(C)C(C)c2cccs2)cc1 (stereo not drawn), the Potency was inconclusive: 12.6 µM [inhibitor, single point].
For Cc1ccc(NC(=O)C2CCCN(c3ncnc4onc(C)c34)C2)cc1Cl (stereo not drawn), the Potency was inconclusive: 12.6 µM [inhibitor, partial curve].
With O=C(c1ccccc1)c1ccc2nc(N3CCN(c4ccc(F)cc4)CC3)c3nncn3c2c1 the Potency was active: 11.2 µM.
With Cc1cccc(C(=O)N2CCC3(CC2)CC(CC(=O)NCc2ccncc2)CCO3)c1 (stereo not drawn) the Potency was inconclusive: 0.355 µM [inhibitor, partial curve, poor fit].
For CCOc1ccc(CC(=O)N2CCC3(CC2)N=C(c2ccc(C)cc2)NO3)cc1, the Potency was inconclusive: 3.98 µM [inhibitor, single point].
With COCCN1CCOC[C@H]2CCN(C(=O)c3ocnc3C)C[C@H]21 the “activity, negative = inhibition” value was inactive: -11.2%.
For CCOC(=O)CC(NC(=O)CCc1c(C)nc2cc(-c3ccccc3)nn2c1C)c1ccc(C)cc1 (stereo not drawn), the Potency was inconclusive: 10 µM [inhibitor, single point].
With CN1CCN(c2ccc3ncc(Nc4ccc(F)cc4)n3n2)CC1 the Potency was inconclusive: 5.62 µM [inhibitor, single point].
With O=C(COc1ccccc1)N1CCN(C(=O)c2nnn3c2COC(c2ccccc2)C3)CC1 (stereo not drawn) the Potency was inconclusive: 2.24 µM [inhibitor, full curve, poor fit].
With CC1=C[C@@H](CN2CCN(c3ccccn3)CC2)[C@H](C(C)C)C[C@H]1Cc1nnc(-c2ccccc2)o1 the Potency was inconclusive: 2 µM [inhibitor, single point].
With CN(C)C[C@@H]1CN(Cc2cccnc2)C[C@H]1NC(=O)c1ccc2c(c1)OCO2 the Potency was inconclusive: 10 µM [inhibitor, single point].
In the case of N#Cc1ccccc1NC(=O)C(=O)NCC(c1cccnc1)N1CCc2ccccc21 (stereo not drawn), the Potency was inconclusive: 17.8 µM [inhibitor, single point].
With COc1ccccc1-c1nnc2n1C(C(=O)NCCc1ccc(Cl)cc1)CC2 (stereo not drawn) the Potency was active: 1.78 µM.
With CC1(C(=O)N2CCN(c3ncccn3)CC2)CCOCC1 the “activity, negative = inhibition” value was inactive: 0.733%.
For COc1cc(OC)c(NC(=O)C(C)n2nc(-c3ccc(C)cc3)c3c(c2=O)CCCC3)cc1Cl (stereo not drawn), the Potency was inconclusive: 17.8 µM [inhibitor, single point].
In the case of CCC1Oc2ccc(NC(=O)Nc3cccc(OC)c3)cc2CN(Cc2ccc3c(c2)OCO3)C1=O (stereo not drawn), the “outcome” value was “inactive”.
For C=CCCC(CN1CCCOCC1)Oc1nccc(C)n1 (stereo not drawn), the Potency was inconclusive: 20 µM [inhibitor, single point].
For Cc1ccc(C2Cn3nnc(C(=O)N4CCN(C(=O)c5c(F)cccc5F)CC4)c3CO2)cc1 (stereo not drawn), the Potency was inconclusive: 20 µM [inhibitor, partial curve, poor fit].
With COC(=O)c1ccc(NC(=O)CSc2nc3cc4ccccc4cc3[nH]2)cc1 the Potency was inconclusive: 0.199 µM [inhibitor, full curve, poor fit].
With O[C@@H]1CC(CNCc2cccc(Cl)c2)(COc2ccccc2)C[C@@H]1O (stereo partly drawn) the Potency was inconclusive: 0.794 µM [inhibitor, full curve, poor fit].
In the case of Cc1ccc2occ(CC(=O)Nc3c(C(=O)Nc4ccc(Cl)cc4)oc4ccccc34)c2c1, the Potency was inconclusive: 17.8 µM [inhibitor, single point].
In the case of O=C(CC1N=C2c3ccccc3N=C(SCC(=O)Nc3ccccc3F)N2C1=O)NCc1ccc2c(c1)OCO2 (stereo not drawn), the Potency was inconclusive: 12.6 µM [inhibitor, single point].
For c1ccc(-c2nc(-c3ccc(OC4CNC4)cc3)no2)cc1, the Potency was inconclusive: 1.41 µM [inhibitor, partial curve, poor fit].
For CCOc1ccc(C(=O)Nc2ccc3nc4c(c(Nc5ccccc5OC)c3c2)CCCC4)cc1, the Potency was active: 11.2 µM.
With O=C1NC2(CCCN(Cc3ccccc3C(F)(F)F)C2)COc2ccccc21 (stereo not drawn) the Potency was inconclusive: 2.24 µM [inhibitor, full curve, poor fit].
In the case of COCCNC(=O)CCc1c(C)nn(-c2ccc(OC)cc2)c1Oc1ccccc1F, the Potency was inconclusive: 3.55 µM [inhibitor, partial curve, poor fit].
In the case of CC(C)CCn1c(=O)c2sccc2n2c(CCCC(=O)Nc3ccc(C(C)C)cc3)nnc12, the Potency was inconclusive: 7.94 µM [inhibitor, partial curve, poor fit].
For COc1ccc(N2CCN(c3nc4ccccc4n4c(C)nnc34)CC2)cc1, the Potency was inconclusive: 4.47 µM [inhibitor, full curve, poor fit].
For Cc1c(C(C)NC(=O)Cc2c[nH]c3ccccc23)cnn1-c1ccccn1 (stereo not drawn), the “activity, negative = inhibition” value was inactive: -23.9%.
For Cc1ccccc1CNC(=O)c1ccc(Cn2c(SCc3ccccc3)nc3cccnc32)cc1, the Potency was active: 11.2 µM.
For COc1ccc(-c2cc(N3CCCN(C(=O)c4ccccc4)CC3)n[nH]2)cc1, the “activity, negative = inhibition” value was inactive: -0.862%.
With Cc1ccc2c(C)c(C(=O)N3CCN(c4ccccc4)C(=O)C3)oc2c1C the “activity, negative = inhibition” value was inactive: 10.3%.
With Cc1ccccc1CCN1CCC(CN(C(=O)c2cnn(C(C)C)c2)C2CCCC2)CC1 the Potency was inconclusive: 12.6 µM [inhibitor, single point].
For CC1CCCN(S(=O)(=O)c2cc(C(=O)NCCc3ccccc3)n(C)c2)C1 (stereo not drawn), the “activity, negative = inhibition” value was inactive: -15.9%.
In the case of COCc1cc(CC2(NCc3ccccc3O)COC2)no1, the “activity, negative = inhibition” value was inactive: -1.32% [at 44.1 µM].
For Cc1cccc(N2C(=O)N(Cc3ccc(C(C)(C)C)cc3)c3ccccc3S2(=O)=O)c1, the Potency was inconclusive: 17.8 µM [inhibitor, single point].
With CCCOCc1cc(CN2CCN(c3ccccc3OC)CC2)c(O)c2ncccc12 the Potency was active: 2.82 µM.
For CCOC(=O)c1c(NC(=O)C(C)Sc2cn(CCNC(=O)c3ccc(OC)cc3)c3ccccc23)sc2c1CCC2 (stereo not drawn), the Potency was inconclusive: 3.55 µM [inhibitor, partial curve].
In the case of Cc1oc(C(O)c2ccccc2)nc1C(=O)Nc1ccc2c(c1)NC(=O)CO2 (stereo not drawn), the Potency was active: 10 µM.
With Cc1ccc(CSCCNC(=O)CN(c2cccc(C)c2C)S(=O)(=O)c2ccccc2)cc1 the Potency was inconclusive: 17.8 µM [inhibitor, single point].
With CC1(C)CC(CC(=O)N[C@H](Cc2ccccc2)C2CC(O)C2)CC(C)(C)N1 (stereo partly drawn) the “activity, negative = inhibition” value was inactive: 7.41%.
In the case of COc1ccc(C(=O)N2CCC(c3n[nH]c(=O)n3Cc3ccc(F)cc3)CC2)cc1F, the Potency was inconclusive: 17.8 µM [inhibitor, single point].
In the case of COc1ccc(C2Cn3cnc(C(=O)N4CCC(C(=O)Nc5ccc(C)cc5C)CC4)c3CO2)cc1 (stereo not drawn), the “activity, negative = inhibition” value was inactive: -9.44%.
With COc1ccc(OC)c(S(=O)(=O)NCc2ccc3c(c2)CCN3C(=O)c2cccc(C)c2)c1 the Potency was inconclusive: 17.8 µM [inhibitor, single point].
In the case of c1cc(-c2nnc([C@H]3CCN(Cc4ncc[nH]4)C3)o2)ccn1, the “activity, negative = inhibition” value was inactive: -16.8% [at 44.1 µM].
For Cc1noc(C)c1-c1cc(-c2ccccc2O)cn2cncc12, the Potency was active: 14.1 µM.
For C=CCCC(CN1CCSCC1)Oc1ncc(C)c(N(C)C)n1 (stereo not drawn), the Potency was inconclusive: 11.2 µM [inhibitor, partial curve, poor fit].
With COc1cc(OC)cc(C(=O)N2[C@@H]3CC[C@H]2CC(NC(=O)c2ccc(F)cc2)C3)c1 (stereo partly drawn) the Potency was inconclusive: 17.8 µM [inhibitor, single point].
With CCOC(=O)c1cc(-c2ccc(C)cc2)n(CCC(=O)Nc2cc(Cl)ccc2C)c1C the Potency was inconclusive: 1 µM [inhibitor, single point].
For COc1ccc(NC(=O)c2c(C)oc3ccn(Cc4ccc(F)cc4)c(=O)c23)c(OC)c1, the Potency was inconclusive: 2.82 µM [inhibitor, partial curve, poor fit].
With CNC(=O)[C@@H]1CN(C(=O)c2cc(C)[nH]n2)C[C@H]1C1CCN(C)CC1 the “activity, negative = inhibition” value was inactive: 11.5%.
With CCc1nc2ccc(C(=O)NCCc3ccc(OC)cc3OC)cc2nc1CC the Potency was inconclusive: 17.8 µM [inhibitor, single point].
For COc1ccc(C(=O)N2CCC3(CC2)CC(N(C(=O)c2ccccc2)C2CC2)CCO3)cn1 (stereo not drawn), the “outcome” value was “inactive”.
In the case of Cn1nc(-c2ccccc2)cc1[C@H]1CN2CC[C@H]1C[C@@H]2CNC(=O)NCc1ccccc1, the Potency was inconclusive: 3.16 µM [inhibitor, single point].
For O=C(Cc1cccs1)N1CCOc2ccc(CN3CCc4ccccc4C3)cc2C1, the Potency was inconclusive: 10 µM [inhibitor, single point].
In the case of COc1cccc(CC(=O)N2CCC(N3C(=O)C(OCC4CC4)C34CCCCC4)CC2)c1 (stereo not drawn), the Potency was inconclusive: 10 µM [inhibitor, partial curve].
With CCOc1ccc(NC(=O)N2CCc3cc(OC)c(OC)cc3C2CNC(=O)CC)cc1 (stereo not drawn) the Potency was inconclusive: 2.82 µM [inhibitor, partial curve, poor fit].
For O=C(Nc1ccc(Cl)cc1)c1nc2c(o1)CCN(Cc1ccc(F)cc1F)CC2, the Potency was inconclusive: 1.12 µM [inhibitor, full curve, poor fit].
